Measurements reported in patent publication CN114805568A (BEIJING KENUO XINCHENG TECH CO LTD, dated 2022).

Legend:
[1] = target: T1, LILRB2-mFc(NCBI号:AAH36827，22-461氨基酸) (UniProt Q8N423 22-461); assay: blocking ELISA: LILRB2-mFc binding to coated HLA-G (partial blocking)
T1 construct: range 22-461; also called 重组LILRB2; not shown: mouse Fc (mFc)

[2] = target: T2, LILRB2重组蛋白(购于ACRO，Cat# LI2-H5220) (UniProt Q8N423 22-461); assay: BLI (Octet QKe), antibody captured on AHC probe, LILRB2 as analyte, 1:1 fit
T2 construct: Bought reagent; Used as analyte at '60nm' in BLI

[3] = target: T1, LILRB2-mFc(NCBI号:AAH36827，22-461氨基酸); assay: blocking ELISA: LILRB2-mFc binding to coated HLA-G

IC50 [1] | Kd [2] | koff [2] | kon [2] | IC50 [3] | Binder
1190 pM | 6360 pM | 0.00252 s⁻¹ | 396000 M⁻¹ s⁻¹ | – | chE8 (Fc fusion, expressed in HEK293, Protein A purified; also called chE8嵌合抗体; chE8重组蛋白) QVQLQESGGGLVQPGGSLNLSCAASGFTFSNSFMTWVRQAPGKRPEWVREWVAGISGDGQYTSYADFAKGRFTISRDNAKSTMYLQLNNLKTEDTAIYYCEKSSTERGQGTQVTVSSAS[human IgG1 Fc with changes not shown]
– | 143 pM | 4.95e-05 s⁻¹ | 347000 M⁻¹ s⁻¹ | 928 pM | chA3 (Fc fusion, expressed in HEK293, Protein A purified; also called chA3嵌合抗体; chA3重组蛋白) QVQLQESGGGLVQAGGSLTLSCAVSGISFGTRAMAWFRQAPGKEREGVASIQADTYISYADSVKGRFTISKDSGKNTLNLQMNNLKPEDTAVYYCAVGDLWGSHLQPHGYNYWGQGTQVTVSSAS[human IgG1 Fc with changes not shown]
– | 3660 pM | 0.000593 s⁻¹ | 162000 M⁻¹ s⁻¹ | – | chE1 (Fc fusion, expressed in HEK293, Protein A purified; also called chE1嵌合抗体; chE1重组蛋白) QVQLQESGGGLVQPGGSLRLSCVGSGFTFRHYAMNWARQAPGKGIEWVASIGTPGLPEAYADSVKGRFTISRDDAKNTLYLQMDNLKTEDTGVYYCARSSDCGGGTCRPPGQGTQVTVSSAS[human IgG1 Fc with changes not shown]
– | – | < 1e-07 s⁻¹ | 424000 M⁻¹ s⁻¹ | 1040 pM | chB9 (Fc fusion, expressed in HEK293, Protein A purified; also called chB9嵌合抗体; chB9重组蛋白) QVQLQESGGGSVQAGGSLRLSCAASGYTDSRYCMGWFRQVPGKEREKVATIYNGDGNTYYDDSVKGRFTISQGNAKNTLFLEMNNLKPEDTAMYYCAAIKAYGSNWCPAVEYSDWGQGTQVTVSSAS[human IgG1 Fc with changes not shown]
– | < 1 pM | < 1e-07 s⁻¹ | 388000 M⁻¹ s⁻¹ | 834 pM | chC7 (Fc fusion, expressed in HEK293, Protein A purified; also called chC7嵌合抗体; chC7重组蛋白) QVQLQESGGGLVQAGGSLRLSCAASEYTDSRYCMAWFRQVPGKEREKVAIIYNGDGNTYYDDSVKGRFTISQSVAKNTLYLQMNNLKPEDTGMYYCAAIKAYGSNWCRAVEYSDWGQGTQVTVSSAS[human IgG1 Fc with changes not shown]
– | < 1 pM | < 1e-07 s⁻¹ | 398000 M⁻¹ s⁻¹ | 537 pM | chD5 (Fc fusion, expressed in HEK293, Protein A purified; also called chD5嵌合抗体; chD5重组蛋白) QVQLQESGGGLVQAGGSLRLSCVASGYPRSSVCMGWYRQAPGKEREGVAAIFTGGGTPYYGDSVKGRFTISQDNAVNTVSLQMNDLKPEDTAMYYCAAELTYCSGGPWTDPVGYWGQGTQVTVSSAS[human IgG1 Fc with changes not shown]
– | 440 pM | 0.00013 s⁻¹ | 295000 M⁻¹ s⁻¹ | 593 pM | chG3 (Fc fusion, expressed in HEK293, Protein A purified; also called chG3嵌合抗体; chG3重组蛋白) QVQLQESGGGSVQAGGSLRLSCAASGYPRSSVCMGWYRQAPGKEREGVAAIFTGGGRPYYADSVKGRFTISQDNAVNTVSLQMNNLKPEDTAMYYCAAELTYCSGGPWTDPVGYWGQGTQVTVSSAS[human IgG1 Fc with changes not shown]
– | 165 pM | 5.61e-05 s⁻¹ | 341000 M⁻¹ s⁻¹ | 604 pM | chE5 (Fc fusion, expressed in HEK293, Protein A purified; also called chE5嵌合抗体; chE5重组蛋白) QVQLQESGGGSVQAGGSLRLSCVASGYPRSSVCMGWYRQAPGKEREGVAAIFTGGGTPYYGDSVKGRFTISQDNAVNTVSLQMNDLKPEDTAMYYCAVELTYCSGGPWTDPVGYWGQGTQVTVSSAS[human IgG1 Fc with changes not shown]
– | 6030 pM | 0.00264 s⁻¹ | 438000 M⁻¹ s⁻¹ | – | chA7 (Fc fusion, expressed in HEK293, Protein A purified; also called chA7嵌合抗体; chA7重组蛋白) QVQLQESGGGSVQPGGRLRLSCETSGYTSSRNWMGWFRQAPGKEREGVASIYTDNGSAYYADSVKGRFTISVDNAKNTVYLQMNSLKPEDTAMYYCAGRIRPPAGTRWPGPLVESAYNTWGRGTQVTVSSAS[human IgG1 Fc with changes not shown]
– | 411 pM | 0.000159 s⁻¹ | 387000 M⁻¹ s⁻¹ | 952 pM | chD6 (Fc fusion, expressed in HEK293, Protein A purified; also called chD6嵌合抗体; chD6重组蛋白) QVQLQESGGGLVQAGGSLRLSCAASGFTGSGYCMGWFRQVPGKEREKVATIYNGYPGDGDPSYDDSVKGRFTISQDTAKNTVYLQMNDLKPEDTAMYYCAAINAYGSNWCQIVEYAHWGVGTQVTVSSAS[human IgG1 Fc with changes not shown]
